Experimental data taken from article PMC10439913 (2023).

What was measured:
His-tagged IGFBP3 = His-tagged IGFBP3 (Homo sapiens (Human), UniProt P17936); experiment: competition radioligand binding (125I-IGF2)
[1] = target: IGFBP3:ALS complex, preformed on immobilized His-tagged ALS (Homo sapiens (Human),Homo sapiens …, UniProt P35858,P17936); experiment: competition radioligand binding (125I-IGF2); ternary complex: IGFBP3 preformed with immobilized ALS
Chain of UniProt P35858 (P35858 28-605, chain 1 of 2): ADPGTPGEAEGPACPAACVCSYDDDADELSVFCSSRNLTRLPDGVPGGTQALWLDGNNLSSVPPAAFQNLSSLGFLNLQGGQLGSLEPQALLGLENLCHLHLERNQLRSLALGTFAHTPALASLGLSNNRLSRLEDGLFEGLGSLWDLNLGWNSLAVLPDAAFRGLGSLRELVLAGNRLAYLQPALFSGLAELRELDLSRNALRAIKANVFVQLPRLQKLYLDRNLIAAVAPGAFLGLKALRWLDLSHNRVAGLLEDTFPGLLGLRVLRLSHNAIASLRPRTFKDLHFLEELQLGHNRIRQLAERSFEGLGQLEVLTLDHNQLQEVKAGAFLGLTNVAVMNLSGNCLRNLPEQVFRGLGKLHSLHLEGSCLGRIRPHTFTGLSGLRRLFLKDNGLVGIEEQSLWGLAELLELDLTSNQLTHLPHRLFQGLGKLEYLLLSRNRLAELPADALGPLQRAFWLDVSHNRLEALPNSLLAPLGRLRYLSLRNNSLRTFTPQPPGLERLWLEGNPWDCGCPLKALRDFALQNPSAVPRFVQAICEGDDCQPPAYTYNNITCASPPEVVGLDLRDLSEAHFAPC
Chain of UniProt P35858 (P17936 28-291, chain 2 of 2, further chain): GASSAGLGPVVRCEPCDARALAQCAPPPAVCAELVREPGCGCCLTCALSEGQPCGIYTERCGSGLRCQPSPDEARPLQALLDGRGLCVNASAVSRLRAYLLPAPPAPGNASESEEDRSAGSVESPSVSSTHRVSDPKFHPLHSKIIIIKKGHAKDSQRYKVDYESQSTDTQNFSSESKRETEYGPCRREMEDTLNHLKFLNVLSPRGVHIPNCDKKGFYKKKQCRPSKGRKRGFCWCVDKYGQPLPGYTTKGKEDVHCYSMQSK

Chain of His-tagged IGFBP3 (P17936 28-291): as the sequence (P17936 28-291, chain 2 of 2, further chain) above

binding result (His-tagged IGFBP3) | binding result [1] | Binder
binds | binds | pro-IGF2(156), non-glycosylated (protein) not shown
binds | – | glycosylated pro-IGF2(156) (protein, glycosylated) not shown
